Data taken from PubChem BioAssay AID1794842 (National Center for Advancing Translational Sciences (NCATS), 2023).
Screen size: about 2,800 compounds; fewer than 10 were called active. Calls follow the shape of the dose curve; as a rule, active = well fitted curve in the direction sought with a large enough effect; inconclusive = small, poorly fitted or top-dose-only effect, or another doubt; inactive = no such curve, though single readings can be large or run the other way. The list shows a part of the results.

Biological target: Metallo-beta-lactamase type 2 (Klebsiella pneumoniae) (UniProt C7C422)
UniProt C7C422, sequence (C7C422 whole entry, looked up): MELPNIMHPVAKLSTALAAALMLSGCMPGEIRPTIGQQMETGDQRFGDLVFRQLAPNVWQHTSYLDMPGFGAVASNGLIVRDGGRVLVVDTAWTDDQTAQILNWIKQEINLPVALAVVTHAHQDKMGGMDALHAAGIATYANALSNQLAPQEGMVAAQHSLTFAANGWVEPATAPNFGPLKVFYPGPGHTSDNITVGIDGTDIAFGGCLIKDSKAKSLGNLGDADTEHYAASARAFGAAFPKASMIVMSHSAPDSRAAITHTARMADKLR
Experiment: qHTS to identify inhibitors of the New Delhi Metallo-beta-lactamase (NDM): Meropenem screen against the machine-based learning selections. Also: % of control where 0% means no effect.
Conditions: Purified NDM-1, meropenem hydrolysis, absorbance 300 nm; at 38.4 µM (top of the series) unless noted
How it was run: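 Hydrolysis by 2 nM NDM-1 was followed by absorbance after >30 min compound preincubation in HEPES pH 7.0 buffer with 1 uM Zn2SO4. For nitrocefin (16.7 uM, 15 min, 485 nm) and meropenem (50 uM, 30 min, 300 nm), each substrate ran on separate plates.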

Activity change, negative = inhibition, inactive:
Cc1cccc(CC(=O)N2CCC(n3cc(-c4nc(-c5ccccc5)no4)nn3)CC2)c1 -0.561%
CCCc1ccc2oc(C(=O)N(CC)Cc3ccncc3)c(C)c2c1 2.74%
Fc1ccc(-c2nnc3ccc(NCCc4ccccn4)nn23)nc1 49.6% [at 57.5 µM]
O=C1CCCN1CCCN1C(=O)[C@@H]2C[C@@H](O)CN2C2(CN(C3CCC(F)(F)CC3)C2)C1=O 0.305%
Cc1ccc(C(=O)NC2CCCN(c3cc(N(C)C)ncn3)C2)s1 (stereo not drawn) -1.15%
C#CCNC(=O)CC[C@H]1CNC(=O)[C@@H]2[C@@H](CCN2Cc2ccc(C(F)(F)F)cc2)N1C 0.773%
CC1(CCCCc2ccccc2)COc2ccc(C(=O)NCc3cnccn3)cc2N1 (stereo not drawn) 1.37% [at 57.5 µM]
CN(C)CCNC(=O)Cc1c[nH]c2ncc(-c3ccccc3)cc12 0.849% [at 57.5 µM]
Cc1ccc(CN2CCC(Oc3ccc4ncccc4c3)(C(=O)O)CC2)o1 7.47%
O=C(N[C@H]1C[C@H]2C(=O)NC[C@@H](CCC(=O)N3CCCCC3)N2C1)c1ccco1 9.56% [at 57.5 µM]
O=C1CCN(S(=O)(=O)c2ccccc2)CCCN(C2CCCCCC2)CCN1 -0.0766%
O=C(Nc1ccccc1)O[C@@H]1CO[C@H]2[C@@H]1OC[C@@H]2NCc1ccccc1 -0.569% [at 57.5 µM]
Cc1nc2ccc(C(=O)N3C[C@@H](CN4CCCCC4)[C@@H](CO)C3)cc2s1 -1.06%
c1cncc(-c2nc3c(c(NCc4ccccc4-n4ccnc4)n2)CNC3)c1 55.4%
COCCC(=O)N1CC[C@H](c2nc3ccccc3o2)C1 -0.767% [at 76.7 µM]
CCn1cc(S(=O)(=O)N2CCC3(CC2)CN(Cc2ccc(OC)cc2)C3=O)cn1 2.84%
Cc1[nH]cnc1CN1CCNc2cc(Nc3ccccc3)ncc2C1 12.8% [at 57.5 µM]
Cc1cccc(CN2CCNc3cc(Nc4cccnc4)ncc3C2)c1 6.89% [at 57.5 µM]
O=C(CCc1nc2ccccc2s1)N[C@H](c1ccccn1)C1CC(O)C1 (stereo partly drawn) 0.35%
Cc1nc(C(=O)NC2CC(c3cc(N4CCC(O)C4)ncn3)C2)cs1 (stereo not drawn) 4.51%
O=C(Cc1ccccc1)N1CCNc2cnc(Nc3ccccc3)nc2C1 9.53% [at 57.5 µM]
CCn1ncc(N2CCC(NC(=O)c3ccccc3OC)CC2)cc1=O 6.48%
CC(C)CS(=O)(=O)Nc1ccc([C@H]2OCC(=O)N(Cc3ccc(F)cc3)[C@@H]2CO)cc1 0.948%
CC(C)NC(=O)NCC1(COc2ccccc2)C[C@@H](O)[C@@H](O)C1 (stereo partly drawn) 0.467% [at 57.5 µM]
Cc1nc(NCc2ccc(C(=O)N3CCCCC3)cc2)cc(C2CC(N)C2)n1 (stereo not drawn) 31.9%
CCNC(=O)c1ccccc1-c1ccc(O)cc1 1.08%
OC1CC(c2cc(NCCCn3ccc4ccccc43)ncn2)C1 (stereo not drawn) -0.0871%
CNS(=O)(=O)CCNc1nccc(-c2cc(C(=O)O)ccn2)n1 27.4%
NS(=O)(=O)c1ccc(-n2nc(-c3ccncc3)nc2C2CCOC2)cc1 (stereo not drawn) -0.257%
CN1CCC(NC[C@H]2COCc3nc4cc(S(C)(=O)=O)ccc4n32)CC1 1.43% [at 57.5 µM]
CN(Cc1ccc2nonc2c1)C(C(=O)O)c1ccc(-c2ccn[nH]2)cc1 (stereo not drawn) 48%
COC[C@H]1C[C@@H](NS(=O)(=O)c2cccc(F)c2)[C@H](O)[C@@H]1O 0.63% [at 57.5 µM]
O=C(NCc1nc(-c2ccncc2)n[nH]1)[C@H]1CCC[C@H](O)C1 -0.451%
O=C(Nc1ccccc1)O[C@@H]1CO[C@H]2[C@@H]1OC[C@@H]2NS(=O)(=O)c1cccc2cccnc12 0.561%
O=c1cc(-c2ccccn2)oc2c(Nc3cccnc3)nccc12 28.9% [at 57.5 µM]
COC(C)c1ccc(-c2cc(C(=O)O)cc(S(=O)(=O)NC(C)C)c2)cc1 (stereo not drawn) 1.58%
CCC1C(=O)N(C)CCN1C(=O)c1coc(COc2ccc3c(c2)OCO3)n1 (stereo not drawn) -1.14%
c1ccc(Nc2cc3c(cn2)CN(Cc2ccc4[nH]ccc4c2)CCN3)cc1 3.66% [at 57.5 µM]
Cc1ccccc1N(C)C1CN(Cc2ccccc2)C1 -0.354% [at 57.5 µM]
CC(C)(CO)CNC(=O)c1cnc2c(c1)N([S+](=O)([O-])c1cccnc1)CCC2 2.99% [at 57.5 µM]
COCCN1CCC(CN(Cc2ccncc2)C(=O)c2cnco2)CC1 4.75%
O=C(Nc1cccnc1)c1ccnc(-c2nnc3ccc(Nc4ccccc4)nn23)c1 28.9% [at 57.5 µM]
CCCOc1ccccc1C(=O)N1CC[C@H](N(C)C)[C@H](CCC(=O)O)C1 -2.23%
NC(=O)CO[C@@H]1CO[C@H]2[C@@H]1OC[C@@H]2NC(=O)NCc1ccccc1 -0.0049% [at 57.5 µM]
O=C1N(CC2CCC2)CCCC12CCN(Cc1ccc(-c3ccn[nH]3)s1)C2 (stereo not drawn) 3.33%
O=C1NCCCCCN(C(=O)NC2CCCCC2)[C@H]2CCCC[C@@H]12 -2.93%
O=C(c1ccoc1)N1CCCn2cc(-c3ccccc3)nc21 5.25%
Cc1ccnc(N2CCN(C3CCC4(CCNCC4)CC3)CC2)c1 46%
CN(Cc1ccccc1)C(=O)C[C@@H]1CCNC[C@@H]1Cc1cc(-c2ccc(C(C)(C)C)cc2)on1 -3.25%
Cc1noc2c(-c3cccnc3NC3CCC(O)CC3)cc(-c3ccccc3)nc12 (stereo not drawn) 62.3% [at 57.5 µM]
CC(=O)Nc1ccc(S(=O)(=O)NC[C@@H]2C=C(C)[C@H](CC(=O)NCCN(C)C)C[C@H]2C(C)C)cc1 -1.22%
N#Cc1ccc(C(=O)N2C[C@@H]3C[C@H](C2)c2ccc(-c4ccc(OC(F)(F)F)cc4)c(=O)n2C3)cc1 -1.86%
Cc1ccc(C(=O)NC[C@@H]2CC[C@H]3C[C@@H]2C3(C)C)cc1 0.368% [at 57.5 µM]
Cc1nc(C(C)C)sc1CNC(=O)C1CCC(=O)N(C2CCCC2)C1 (stereo not drawn) 0.213%
CCc1cc(=O)n(CC(=O)Nc2ccc(C(F)(F)F)cc2)c(N2CCOCC2)n1 -0.247%
CC1(C(=O)NCCc2ccccn2)COCc2cnc(Nc3ccccc3)nc21 (stereo not drawn) 8.33% [at 57.5 µM]
CC1(CNc2ccccc2)COc2ccc(C(=O)NCCc3cnc[nH]3)cc2N1 (stereo not drawn) 11.9% [at 57.5 µM]
CN1Cc2ncnc(NCCc3ccc(F)cc3)c2CN(c2ccc(Cl)cc2)C1=O -0.174%
COC(=O)c1cn([C@H]2CO[C@H]3[C@@H]2OC[C@H]3OC(=O)Nc2cccc(C#N)c2)nn1 -0.026% [at 57.5 µM]
COC[C@@H]1CN(C(=O)c2ccc(OC)nc2)C[C@H]1c1nc(C2CC2)no1 0.661%
NC(=O)Cc1c[nH]c2ncc(-c3ccc4c(c3)OCO4)cc12 7.8% [at 57.5 µM]
O=C(NC(c1ccccc1)c1ccccc1)c1cnc2c(c1)N(Cc1ccccc1)CCC2 -2.65% [at 57.5 µM]
O=C(N[C@H]1CC[C@H](Nc2nccc(-c3cccnc3)n2)C1)c1ccc(O)cc1 -4.84%
COc1ccc(-c2cnc3[nH]cc(CC(=O)NCc4cnccn4)c3c2)cc1 -2.43% [at 57.5 µM]
COc1nccnc1NC1CCN(C(=O)c2cccs2)CC1 1.07%
COc1cccc(NC(=O)N[C@H]2[C@H](O)[C@@H](N3CCN(C)CC3)[C@@H]3OC[C@H]2O3)c1 -0.0731% [at 57.5 µM]
COC(=O)[C@H](Cc1ccc(OC)cc1)NC(=O)[C@H]1CN(S(=O)(=O)c2ccccc2)CCN1C(=O)c1cccs1 0.492%
CS(=O)(=O)N1CCCCC1CCNc1nccc(-c2cccnc2)n1 (stereo not drawn) 2.53%
CC(=O)N1CCN(CC[C@H]2CN(C(=O)c3ccnc(Cl)c3)CC[C@H]2CC(=O)O)CC1 26.6%
O=C(CN1C(=O)NC(c2ccccc2Cl)C2=C1COC2=O)Nc1ccc(F)c(Cl)c1 (stereo not drawn) 2.9%
O=[S+]([O-])(c1cccnc1)N1CCNc2cnc(Nc3ccc(-n4ccnc4)cc3)nc2C1 35.7%
Cc1ccc(-c2cc(N3CCC(CNC(=O)c4cc(C5CC5)[nH]n4)CC3)n[nH]2)cc1 5.43%
COc1cccc(CNC(=O)c2cc(-c3ccncc3)cn2C)c1OC 2.14%
CCNC(=O)N1CCC[C@@H](O)[C@H](NC(=O)c2ccc(OCCOC)cc2)C1 0.107% [at 57.5 µM]
COc1cccc(CN2CCN(c3ncccc3Cl)CC2CCO)c1 (stereo not drawn) -2.21%
O=C(c1ccccc1)N1CCn2c(nn(-c3ccc([N+](=O)[O-])cc3)c2=O)C1 8.06%
COC(=O)c1cn([C@H]2CO[C@H]3[C@@H]2OC[C@@H]3NC(=O)c2ccc(N(C)C)cc2)nn1 14.7% [at 57.5 µM]
CCc1ccc(N2CC(c3noc(-c4cc(Cl)ccc4F)n3)CC2=O)cc1 (stereo not drawn) 0.385%
